The list shows a part of the results.

T1: UNK ZnF1-3 (human, UniProt Q9C0B0 31-174)
T1 sequence: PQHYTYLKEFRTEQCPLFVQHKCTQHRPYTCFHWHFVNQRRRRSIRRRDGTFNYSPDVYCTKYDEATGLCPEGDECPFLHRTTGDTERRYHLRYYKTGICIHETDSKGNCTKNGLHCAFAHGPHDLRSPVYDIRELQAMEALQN

B1: chr10:33218917:33218918:-_ENSG00000150093_ENST00000302278|perfect_dup|motif|central (ssRNA)
RNA: GGGAGUUCUACAGUCCGACGAUCAGAGCCUCUGGGAUUCUCUAUGUCACUUGGCUGGCAACCCUUCUUUUUCAAAGCUUCGGAAUCAUCACAUCGUGCAGAAGUAGGCAUUCCUUCUUGCAAAAAUGUCGUAUUUGUACACCACAACAGAGGAUUGAGCAUCA
B2: chr12:109547708:109547709:+_ENSG00000076248_ENST00000242576|hu_hu|motif|central (ssRNA)
RNA: GGGAGUUCUACAGUCCGACGAUCAGACUUCUGCAGCAGCUCAUUGGUCUUUGAAAAGUGUCUACAUCCAAAGAACCCUCGGUACACUGACAAAGGGGAGGGAUGAGCCGUCUGUAGUACAUGGUGCCGCUUCCUAUCAAUGGCCAACAGAGGAUUGAGCAUCA
B3: chr2:166765161:166765162:+_ENSMUSG00000002718_ENSMUST00000002790|mus_hu|FALSE|FALSE (ssRNA)
RNA: GGGAGUUCUACAGUCCGACGAUCGGAUAAACAUAUUGCUUCAAACAUGUAGUGAUUAAAGUGAGGUUUGCUUGGGUUCUUACUAACAGCUAAUAGCUUCUGUGUAAGCUGAGUGAUGAGAGUAGGGAUGUAGGGGAUUAUGGCCAACAGAGGAUUGAGCAUCA
B4: 32415220_32417800_680_3pUTR_ENSG00000056097_ENST00000265069|human|control|control (ssRNA)
RNA: GGGAGUUCUACAGUCCGACGAUCUGGCUGUCACUUGUCGAGUUUGCUGGGCUUGAGUAUACUGAGUUGCACCUUGGCUGUAACCUGCUUUGGGGGCUGUCUGAUAGUAAGUUUCAGCAACAGAAGGCUGAGGUUGGGCAGCGGCAACAGAGGAUUGAGCAUCA
B5: 65268860_65273288_494_CDS_ENSG00000090487_ENST00000204566|human|control|control (ssRNA)
RNA: GGGAGUUCUACAGUCCGACGAUCCUCGAGAUGGUCCCAAUAAACUGGAUACUGCAAAGCGAUAACCCGGUAACCCCAUCCAGUCAGAGCCAAAAUCUGCCGGAAAAAGACAUCUGCAGUUCCACUGACAGGGGGCAGGAAUAUCAACAGAGGAUUGAGCAUCA
B6: chr2:216981417:216981418:+_ENSG00000079246_ENST00000392132|hu_hu|hu_hu_hu_mus_True|68_68 (ssRNA)
RNA: GGGAGUUCUACAGUCCGACGAUCCUGAUACUGGUCCUUGCCAGCAAGGGCAUUAUCAGUGCCAUCUGUACCAAACAGGACUAACGCAAUCUCAUCUUUGCUCUCCGAAAAUACCUGUCGUUGGACAAACAUAGUCAUCACUUUCAACAGAGGAUUGAGCAUCA
B7: 60560391_60582507_928_CDS_ENSMUSG00000026014_ENSMUST00000140485|mouse|control|control (ssRNA)
RNA: GGGAGUUCUACAGUCCGACGAUCCAGAGCAACUCGGAUCUUCUCAGCUUUCAGUUUUGCUGCCUGUUCUUCCUCAGUAAUUGGCUGCCCCUGGUGUGUGGUCAAAUCAAGCUCUUGAGGGCGUGUCACUUUAUCAAUAUCCAGCAACAGAGGAUUGAGCAUCA
B8: chr4:76721835:76721836:+_ENSG00000138768_ENST00000264904|hu_mus|hu_hu_hu_mus_True|68_68 (ssRNA)
RNA: GGGAGUUCUACAGUCCGACGAUCGUUUGGCUGGGGUUUCUGAGACGCUCUGGAAUAUAACUCAUGUUGCUAAUAAAAUCCUAGUUUCUCUAUGAAAUUCUCUUUGCCAAUCCUCUUCUCUAUUAGUUGCUUUAGUUUCUCUUUCAACAGAGGAUUGAGCAUCA
B9: chr8:95500983:95500984:-_ENSG00000164944_ENST00000437199|hu_hu|hu_hu_hu_mus_True|18_98 (ssRNA)
RNA: GGGAGUUCUACAGUCCGACGAUCAGAACACAUCUAUUCGUGUAAAGACCGUACAUGACGGCCUCUACCACUGCCUCCACUAACAAACUUUCCUCUCGAGCCUCCACUGCCGCUAUUUUGCACUAGCCAGGACGGUCCCAGGCCCAACAGAGGAUUGAGCAUCA
B10: chrX:131339380:131339381:-_ENSMUSG00000033436_ENSMUST00000035559|mus_mus|FALSE|FALSE (ssRNA)
RNA: GGGAGUUCUACAGUCCGACGAUCACCGAGAAGUUUCUUUAGCAUGUCCGGAUUUUCAGCAAAGUUUGAAAGUAUUUUCAGAAUCUCAACCUUGAUUUUUCCACCCCCCUGAGAUAACAAGCGGAAAAAGUUGGCAAUGGAAUUCAACAGAGGAUUGAGCAUCA
B11: chr17:21098601:21098602:+_ENSMUSG00000007564_ENSMUST00000007708|mus_hu|motif|central (ssRNA)
RNA: GGGAGUUCUACAGUCCGACGAUCGGCCAAGACCUUGGGGAUGAUUGUGGCAUGGGCCCACUCCUUCCCAAACUUUUCCACGGGCUUCUUCAGGUUGCUGGUGGCUGCCUCGCGGAUGGCAUAUACAUGAUCCACAAGCCAGGCCAACAGAGGAUUGAGCAUCA
B12: chr15:98684510:98684511:-_ENSMUSG00000048154_ENSMUST00000023741|mus_mus|FALSE|FALSE (ssRNA)
RNA: GGGAGUUCUACAGUCCGACGAUCGGCCUUUUGCAGGUAGGGGGCUUUGUCAGCGGCUGGAACCUUUCUCCAGAGCUUCAUGAUUUGUUUACAUCGGCUAGACCAGUCUGGGUAAUCUUGCUUGAGAUUAGGAAAGUUAAUGUUCAACAGAGGAUUGAGCAUCA
B13: 100424326_100425255_1919_3pUTR_ENSG00000136937_ENST00000375147|human|control|control (ssRNA)
RNA: GGGAGUUCUACAGUCCGACGAUCUUUUGAAGACUUCAUGAAACUUUGCAAGAGCACUGAAGGAGUGGCUGAAUGAUUUGGCUGCCAAGUGUAGCAGAGUCUGUACAAAGACUUCUAUUUUCAAUGGGUUAAAACUGAAUCCUUCAACAGAGGAUUGAGCAUCA
B14: chr4:107938938:107938939:-_ENSMUSG00000034636_ENSMUST00000043616|mus_mus|motif|central (ssRNA)
RNA: GGGAGUUCUACAGUCCGACGAUCCCGGCUGAAGCACCGCUCAUAUGGAUCCUCGAGGGACAGAGUUAAUGAGUUUAGUACGGAGCACUGAAGAUUUUGCUGGAUCCACUUGUUACUGCCAAGGCCACUUAUGAUGUCUGUGAUCAACAGAGGAUUGAGCAUCA

The target of this assay is T1, UNK ZnF1-3. The experiment in a line: nsRBNS (natural sequence RNA bind-n-seq); RBNS binding buffer (assumed for nsRBNS): 25 mM Tris pH 7.5, 150 mM KCl, 3 mM MgCl2, 0.01% Triton X-100, 500 ug/ml BSA, 20 U/ml SUPERase-In, 4 C; UNK is unkempt and MSI1 is Musashi-1; names of the RNAs are library labels; protein concentration not given here; high values mean tight binding.
For B1, the binding signal turned out to be 0.855 enrichment R.

B2 displayed a binding signal of 1.62 enrichment R.

Take B3: the binding signal was found to be 1.86 enrichment R.

As for B4, the binding signal was determined as 1.46 enrichment R.

Molecule B5 displayed a binding signal of 1.5 enrichment R.

B6 registered a binding signal of 0.646 enrichment R.

As for B7, the binding signal was 0.875 enrichment R.

In turn, B8 yielded a binding signal of 0.472 enrichment R.

B9: the binding signal came out at 1.02 enrichment R.

The molecule B10 had a binding signal of 1.26 enrichment R.

Molecule B11 yielded a binding signal of 1.21 enrichment R.

On to B12, for which the binding signal stood at 0.788 enrichment R.

B13 came in with a binding signal of 1.05 enrichment R.

B14 returned a binding signal of 1.23 enrichment R.

These data come from PMC12136788.
